Assay results from PMC4336329 (PLoS ONE, 2015).
Out of some 310,000 compounds screened, about 2,200 (0.71%) showed an effect of 50% or more. Effects have a minus sign here. The list shows a part of the results.

molecular target: human ether-à-go-go-related gene (hERG) potassium channel (human, UniProt Q12809); experiment: primary screen, population patch clamp on CHO cells stably expressing hERG
Sequence (Q12809 whole entry, looked up): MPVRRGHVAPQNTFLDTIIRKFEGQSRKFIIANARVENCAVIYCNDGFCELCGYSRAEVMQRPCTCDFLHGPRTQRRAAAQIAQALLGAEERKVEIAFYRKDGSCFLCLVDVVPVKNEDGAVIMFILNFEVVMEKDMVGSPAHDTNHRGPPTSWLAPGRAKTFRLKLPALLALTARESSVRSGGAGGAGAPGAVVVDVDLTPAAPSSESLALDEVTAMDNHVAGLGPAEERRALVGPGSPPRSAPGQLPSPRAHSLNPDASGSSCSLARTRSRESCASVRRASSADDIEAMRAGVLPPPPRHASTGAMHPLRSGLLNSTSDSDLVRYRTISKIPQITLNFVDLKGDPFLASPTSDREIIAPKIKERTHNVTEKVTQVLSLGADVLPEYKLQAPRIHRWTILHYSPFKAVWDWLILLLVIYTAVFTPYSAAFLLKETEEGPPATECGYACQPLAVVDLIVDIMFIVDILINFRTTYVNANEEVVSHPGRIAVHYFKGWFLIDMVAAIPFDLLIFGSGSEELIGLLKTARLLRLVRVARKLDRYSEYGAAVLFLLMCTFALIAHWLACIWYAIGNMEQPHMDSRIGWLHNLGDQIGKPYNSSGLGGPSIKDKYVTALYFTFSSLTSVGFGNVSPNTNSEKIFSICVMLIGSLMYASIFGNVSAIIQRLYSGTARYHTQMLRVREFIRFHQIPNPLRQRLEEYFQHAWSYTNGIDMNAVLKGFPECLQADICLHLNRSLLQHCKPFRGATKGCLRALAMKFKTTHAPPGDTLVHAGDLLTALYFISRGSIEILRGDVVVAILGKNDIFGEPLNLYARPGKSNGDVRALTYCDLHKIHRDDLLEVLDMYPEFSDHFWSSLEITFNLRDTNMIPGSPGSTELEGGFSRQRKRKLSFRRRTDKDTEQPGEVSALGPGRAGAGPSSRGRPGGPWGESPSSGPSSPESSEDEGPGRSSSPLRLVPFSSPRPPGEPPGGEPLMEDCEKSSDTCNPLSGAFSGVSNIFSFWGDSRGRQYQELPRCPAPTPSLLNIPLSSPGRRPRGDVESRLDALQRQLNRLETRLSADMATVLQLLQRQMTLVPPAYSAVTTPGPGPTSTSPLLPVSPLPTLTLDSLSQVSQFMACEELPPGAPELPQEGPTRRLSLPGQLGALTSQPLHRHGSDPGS

Compound | hERG current change (%, negative = inhibition) at 1uM [%]
O=S1(=O)N=CN(Cc2cccc(F)c2)c2ccccc21 | 4.93
O=C1N=C(N2CCC(Cc3ccccc3)CC2)S/C1=C/c1cn[nH]c1-c1ccccc1 | 4.02
CCCCCc1cc(=O)[nH]c(=S)[nH]1 | 14.8
COC(=O)c1ccc(Cl)cc1NC(=O)/C=C/c1ccc(C)o1 | 5.25
COC(=O)c1[nH]c2ccc(C)cc2c1NC(=O)CN1CCN(C(=O)c2ccccc2)CC1.Cl | -1.98
COc1ccc(CN2CCC(C(=O)Nc3ccc(Oc4ccccc4)nc3)CC2)cc1F | -37.8
Cc1cnc(NC(=O)CCCc2nc3ccccc3s2)s1 | 0.54
COc1ccc(CCN2CCCn3c2nc2c3c(=O)n(CC(N)=O)c(=O)n2C)cc1OC | 11.6
Cc1cc(Oc2ccc(=O)n(C)n2)nc(SCc2ccccc2)n1 | 10.1
O=C(O)CC12CC3CC(C1)CC(n1ncc(NCc4ccccc4)c(Cl)c1=O)(C3)C2 | 11.3
CCC(C)[C@H](NC(=O)[C@@H]1CSC2c3ccccc3C(=O)N21)C(=O)N1CCCCC1 (stereo partly shown) | 8.7
Cn1c(SCC(=O)Nc2ccc(N3CCOCC3)c(Cl)c2)nnc1-c1ccccc1 | 12
NS(=O)(=O)c1ccc(CCNC(=O)C(=O)Nc2cc3c4c(c2)CC(=O)N4CCC3)cc1 | 5.38
COC(=O)c1ccc(C)c(NC(=O)Cn2cnc3ccccc3c2=O)c1 | -4.84
COc1ccccc1Nc1nc(N2CCCC2)nc(N2CCOCC2)n1 | 19.3
Cc1ccccc1NS(=O)(=O)c1ccc(C)c(C(=O)N2CCOCC2)c1 | 6.13
CCOC(=O)c1cc2sccc2n1CCCN1C(=O)c2ccccc2C1=O | 15.3
Cn1c(SCC(=O)Nc2nccs2)nnc1-c1ccco1 | 6.02
Clc1ccc(OCc2nnc(SCc3nc4ccccc4[nH]3)n2Cc2ccco2)cc1 | 2.11
CC1CCN(c2ccc3nnc(CCC(=O)NC(C)C)n3n2)CC1 | 11.8
O=C(CN(C(=O)c1csnn1)c1ccc(Br)cc1)NC1CCCCC1 | 13.7
Nc1cccc(NC(=O)c2ccco2)c1 | 8.56
Cc1nn(C)c(Oc2ccccc2)c1CCNC(=O)CC(C)C | 8.21
COc1ccccc1CC(=O)Nc1ccc2nc(C)sc2c1 | 11.2
CCN1CCN(c2cc(C)c3cc(NC(=O)Cc4ccc(OC)c(OC)c4)ccc3n2)CC1 | 8.9
O=C(/C=C/c1ccc(O)c(O)c1)O[C@@H]1C[C@](O)(C(=O)O)C[C@@H](O)[C@H]1O | 11.5
O=C(NCc1ccccc1)C1CCC1 | 19.8
CCOC(=O)c1c(NC(=O)CN(C)C)sc(C(=O)N(CC)CC)c1C.O=C(O)C(=O)O | -1.61

Compound | hERG current change (%, negative = inhibition) at 1uM [%]
O=S(=O)(c1cc(Cl)ccc1Cl)N1CCCC1 | 5.68
Nc1nc(SCC(=O)NC2CCCCC2)[nH]c(=O)c1-c1ccccc1 | 2.58
COC(=O)c1onc(-c2c(Cl)cccc2Cl)c1C(=O)OC | 20.9
COCCCNC(=S)NNC(=O)c1ccccn1 | 17
COc1ccc(CN(C(=O)c2cc3ccccc3oc2=O)C2CCCC2)cc1 | -3.53
CC(C)CN(C(=O)CC1CCCC1)c1c(N)n(Cc2ccccc2)c(=O)[nH]c1=O | 4.91
COc1ccc(CNC(=O)C(=O)NCCC2CCCCN2S(=O)(=O)c2ccc(C)cc2)cc1 (stereo not shown) | 12.3
CCC(CC)NC(=O)COC(=O)c1ccc(NS(=O)(=O)c2ccc3c(c2)OCCO3)cc1 | 2.14
O=C(CNC(=O)Cc1ccccc1)NCc1cccc(C(F)(F)F)c1 | 7.73
Cl.O=[N+]([O-])c1cccc(/C=N\N2CCN(Cc3ccccc3Cl)CC2)c1 | 15.9
CCn1c(N)c(C(=O)NCc2ccco2)sc1=S | 11.4
Cc1ccc(N(CCC#N)C(=O)COC(=O)C2CCN(c3ccc(C(F)(F)F)cn3)CC2)cc1 | 6.66
COc1cccc(CN2CCNC(=O)C2CC(=O)NCC(C)(C)N2CCOCC2)c1OC (stereo not shown) | 15.9
O=C(Nc1nc2ccsc2c(=O)s1)c1ccc(Cl)cc1 | 5.65
CCOC(=O)c1ccc(NC(=O)CSc2nnc(Cn3c(=O)sc4ccccc43)n2C)cc1 | 12.1
CC(C)(C)NC(=O)C(c1ccc(F)cc1)N(Cc1ccccc1Cl)C(=O)c1ccn[nH]1 (stereo not shown) | 13.2
COc1cccc(C2/C(=C(/O)c3cnn(-c4ccccc4)c3C)C(=O)C(=O)N2CCN(C)C)c1 (stereo not shown) | 15.4
COc1ccc(C)cc1-n1nnnc1SCC(=O)NC1CCS(=O)(=O)C1 (stereo not shown) | 0.663
Cc1ccc(NC(=O)C2CCCN2S(=O)(=O)c2ccc3c(c2)n(C)c(=O)c(=O)n3C)c(C)c1 (stereo not shown) | -1.59
O=C(NCc1cccnc1)C(=O)NCC1OCCN1S(=O)(=O)c1ccc(F)cc1 (stereo not shown) | 8.31
O=C(CS(=O)(=O)c1cn(Cc2ccc(F)cc2)c2ccccc12)N1CCCCC1 | 3.03
Cc1ccccc1NC(=O)CSc1nnc(Cc2ccccc2)o1 | 4.4
O=S(=O)(c1cccc2nsnc12)N1CCN(c2ccccc2F)CC1 | 11
CNCc1ccccc1Sc1ccc(OC)cc1.Cl | -7.21
CCN(CC)CCOC(=O)c1ccc(NC(=O)CCCN2C(=O)S/C(=C/c3ccc(OC)cc3)C2=S)cc1 | 16
CSc1nnc2c(n1)OC=Nc1ccc(Br)cc1-2 | -5.82
Cc1cc(C(=O)NNC(=S)NC(C)c2ccccc2)c2ccccc2n1 (stereo not shown) | 12.8
